Source: the supplement of paper PMC12217912
Some of the results follow. Sequences were assembled here from the parent chain. Values near 0.05 are background.

B1: TEV protease; numbered along this chain (parent)
chain: MGESLFKGPRDYNPISSSICHLTNESDGHTTSLYGIGFGPFIITNKHLFRRNNGTLVVQSLHGVFKVKDTTTLQQHLVDGRDMIIIRMPKDFPPFPQKLKFREPQREERICLVTTNFQTKSMSSMVSDTSCTFPSGDGIFWKHWIQTKDGQCGSPLVSTRDGFIVGIHSASNFTNTNNYFTSVPKNFMELLTNQEAQQWVSGWRLNADSVLWGGHKVFMVKPEEPFQPVKEATQL

Variants of: B1
Test: raw area under fraction-flipped curve 0-4 h after induction (AUC4h, not background-subtracted), DNA-recorder readout of cleavage of the substrate (dimensionless); higher = more cleavage of the substrate by the protease variant
Conditions: temperature: 34 °C; time window: 0-4 h after rhamnose induction
Protocol: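 In vivo DNA recorder in E. coli TOP10(DE3) ΔrhaA at 34 °C. Each TEVp single-site mutant (parent TEVp 0) is paired with a single-site variant of the 7-mer TEVs (canonical ENLYFQ|S). The substrate sits between flexible linkers in a Bxb1-sfGFP-TEVs-SsrA fusion, so cleavage stabilises Bxb1 and speeds flipping of a recombination array, read by NGS. The value is the raw area under the fraction-flipped curve over 0-4 h after rhamnose induction (AUC4h), with ≥20 reads per time point. It is not background-subtracted; inactive controls average about 0.047.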
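Note: Bxb1 expression induced with 0.2% (w/v) L-rhamnose at OD600 near 0.5, cultures sampled hourly, flipped fraction per protease–substrate barcode pair counted by paired-end Illumina sequencing.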

| Variant | area with substrate EALYFQS | area with substrate EMLYFQS | area with substrate EPLYFQS | area with substrate ERLYFQS | area with substrate ESLYFQS | area with substrate EVLYFQS | area with substrate EDLYFQS | area with substrate EELYFQS | area with substrate EGLYFQS | area with substrate EILYFQS |
| --- | --- | --- | --- | --- | --- | --- | --- | --- | --- | --- |
| Q59N | 0.0894 | 0.104 | 0.121 | 0.107 | 0.0971 | 0.0958 |  |  |  |  |
| Q59R | 0.151 |  | 0.16 |  | 0.115 | 0.0935 | 0.136 | 0.165 | 0.126 | 0.0814 |
| S60W | 0.123 |  | 0.164 | 0.103 | 0.139 |  |  |  |  | 0.0965 |
| L61F | 0.0872 |  |  |  |  | 0.0874 |  |  | 0.108 | 0.0711 |
| F65I | 0.0832 | 0.0966 |  | 0.116 | 0.0977 | 0.0877 |  | 0.0617 | 0.0654 | 0.0645 |
| K66E | 0.154 | 0.0967 |  |  | 0.122 | 0.0996 |  |  | 0.0995 | 0.103 |
| K66W | 0.0921 |  |  |  | 0.121 |  |  |  |  |  |
| T70F | 0.0943 |  |  |  | 0.0827 | 0.0558 |  |  |  |  |
| Q75D | 0.056 |  |  | 0.0712 | 0.058 | 0.04 |  |  |  | 0.053 |
| H76F | 0.0922 | 0.12 |  | 0.0672 | 0.0962 | 0.0683 | 0.122 |  | 0.0787 | 0.0683 |
| R81A | 0.122 | 0.091 | 0.119 |  | 0.0972 |  |  | 0.126 | 0.12 | 0.0912 |
| R87N | 0.129 |  | 0.0927 |  |  |  |  |  |  | 0.0744 |
| R87V | 0.0925 | 0.0862 |  |  | 0.108 | 0.0735 |  |  |  |  |
| P89V | 0.094 |  |  |  |  | 0.0721 |  |  |  | 0.0755 |
| D91S | 0.124 |  |  |  | 0.11 |  | 0.123 |  | 0.108 | 0.103 |
| D91T | 0.149 |  |  | 0.0899 | 0.096 |  | 0.11 | 0.0985 |  |  |
| P93C | 0.093 |  |  |  | 0.112 |  | 0.162 |  |  |  |
| P94V | 0.12 | 0.155 | 0.158 | 0.128 | 0.0988 | 0.099 | 0.153 |  | 0.0716 |  |
| L99E | 0.0815 | 0.0759 |  | 0.069 | 0.0832 | 0.0536 |  |  | 0.0815 |  |
| L99M | 0.132 | 0.0652 |  | 0.0902 | 0.0961 | 0.0883 |  | 0.0683 |  | 0.0854 |

Same assay, conditions: temperature: 34 °C; time window: 0-4 h after rhamnose induction

| Variant | area with substrate ELLYFQS | area with substrate EQLYFQS | area with substrate ETLYFQS | area with substrate EWLYFQS | area with substrate EYLYFQS | area with substrate EKLYFQS | area with substrate EHLYFQS | area with substrate EFLYFQS |
| --- | --- | --- | --- | --- | --- | --- | --- | --- |
| Q59R | 0.0956 | 0.127 | 0.117 | 0.0931 | 0.119 |  |  |  |
| S60W | 0.0931 | 0.0921 |  |  |  | 0.073 |  |  |
| F65I |  | 0.123 |  |  |  |  | 0.0693 |  |
| K66E |  | 0.111 |  | 0.0917 | 0.112 | 0.129 |  |  |
| K66W |  | 0.0962 | 0.0774 |  | 0.113 |  | 0.0863 |  |
| T70F |  | 0.0838 |  |  |  | 0.0755 |  | 0.0574 |
| Q75D | 0.0564 |  |  | 0.0213 |  |  |  |  |
| H76F | 0.0766 | 0.0823 | 0.0927 | 0.0782 |  | 0.0824 | 0.0886 | 0.106 |
| R81A |  | 0.112 |  |  | 0.0963 | 0.0887 |  |  |
| R87V |  | 0.0805 |  | 0.0982 |  |  | 0.0779 |  |
| P89V | 0.0523 |  |  |  |  |  | 0.0908 |  |
| D91S | 0.0837 | 0.108 |  | 0.102 |  | 0.137 | 0.117 |  |
| D91T |  | 0.0471 | 0.0985 | 0.112 |  | 0.0847 |  | 0.112 |
| P93C | 0.0516 | 0.136 |  |  |  |  | 0.125 |  |
| P94V | 0.119 |  |  | 0.118 |  |  |  | 0.102 |
| L99E | 0.0395 |  |  | 0.051 |  | 0.0816 |  |  |
| L99M |  | 0.131 |  |  |  |  |  |  |
